The whole screen tested about 48,000 compounds, of which about 450 (0.94%) were called active. Inconclusive results (about 19%) are left out. Calls follow the shape of the dose curve; as a rule, active = well fitted inhibition curve with a large enough effect; inconclusive = small, poorly fitted or top-dose-only effect; inactive = no such curve, though single readings can be large or run the other way. This is one part of the list.
Assay: Primary qHTS for Identification of Small Molecule Inhibitors of Huntingtin Promoter Activity; also: nearly all actives have a fitted effect of over 50% in size
Details: HEK293 HTT promoter firefly luciferase reporter (activity 0% = vehicle and -100% = no light), 24 h; series mostly up to 57.5 µM; activity change, negative = inhibition: at the top concentration
Outline: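 HEK293 luciferase promoter-reporter cells (2,500/well) plated 24 h, then compounds added at up to 57.5 uM final for 24 h at 37 °C. Firefly luminescence by Dual-Glo, normalized to vehicle (0%) and zero RLU (-100%).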
Potency is read from the fitted curve at half-maximal effect.

Row | SMILES | activity change, negative = inhibition | Potency
1 | CCc1nn(CC(=O)NCc2ccccc2Cl)c(=O)c2cccn12 | inactive: -2.86% | –
2 | Cc1cc(C)cc(NC(=O)c2cccc3c2C(=O)N(C2CCCCC2)C3)c1 | inactive: 8.62% | –
3 | O=C(COc1ccccc1[N+](=O)[O-])Nc1ccc(-c2nc3ccccc3s2)cc1 | inactive: 44.4% | –
4 | Cc1nc(SCC(=O)Nc2ccccc2F)[nH]c(=O)c1Cc1ccccc1 | inactive: -0.605% | –
5 | O=S(=O)(c1ccccc1)c1nc(-c2cccs2)oc1SCc1ccc(F)cc1 | inactive: -13.4% | –
6 | COc1ccc(S(=O)(=O)c2cc(NS(=O)(=O)c3ccc(Cl)cc3)c(C)c(C)c2O)cc1 | inactive: -25.7% | –
7 | COc1ccc(NC(=O)c2cnc[nH]2)cc1 | inactive: 66% | –
8 | COc1ccc(-c2cn3nc(SCC(=O)Nc4ccc(C)c(Cl)c4)ccc3n2)cc1 | inactive: 28.8% | –
9 | Cc1ccc(NC(c2ccc(Cl)cc2)c2nnc(-c3cccc(F)c3)o2)cc1C (stereo unspecified) | inactive: -6.03% | –
10 | COC(=O)CCNC(=O)N1CCN(c2nnc(C)c3c(C)n(-c4ccc(Cl)cc4)nc23)CC1 | inactive: -2.82% | –
11 | COc1ccc(OC)c(CCNC(=O)c2c3c(nc4ccccc24)C(=O)N(C2CCCCC2)C3)c1 | inactive: -26.6% | –
12 | Cc1cc(C)c(NC(=O)COc2ccc3c(C)cc(=O)oc3c2)c(C)c1 | inactive: -28.3% [at 11.5 µM] | –
13 | O=C(CSc1nc2c([nH]c3ccccc32)c(=O)n1-c1ccc(Cl)cc1)N1CCCC1 | inactive: -2.91% | –
14 | CCOC(=O)Cn1c(=O)oc2cc(S(=O)(=O)N3CCN(c4ccc(C(C)=O)cc4)CC3)ccc21 | inactive: -31.3% | –
15 | CCOc1ccc(S(=O)(=O)c2cn(Cc3cc(C)ccc3C)c3ccc(OCC)cc3c2=O)cc1 | inactive: -13.3% | –
16 | COc1cccc(Nc2nc3cc(Cl)c(Cl)cc3nc2-n2nc(C)cc2C)c1 | inactive: -4.24% | –
17 | COc1ccc(NC(=O)Cn2nc(C)c3nn(-c4ccc(Cl)cc4)c(C)c3c2=O)cc1 | inactive: -26.7% | –
18 | CCCOC(=O)c1ccc(Cn2nnc3sc4c(c3c2=O)CCC(C)C4)cc1 (stereo unspecified) | inactive: 7.4% | –
19 | COc1ccccc1CNC(=O)c1cnc(N2CCCC2)nc1C | inactive: -9.99% | –
20 | CC1CCN(c2oc(/C=C/c3ccc(F)cc3)nc2C#N)CC1 | inactive: -9.99% | –
21 | CCOc1ccc(-c2nc(Cn3c(=O)cc(C)c4c(C)nn(-c5ccc(C)cc5)c43)c(C)o2)cc1 | inactive: 15.7% | –
22 | COc1ccccc1NC(=O)C1=C(C)Nc2nc(SCc3ccccc3)nn2C1c1cccnc1 (stereo unspecified) | inactive: -14.1% | –
23 | COc1ccc(CCNC(=O)CCn2c(=O)c3ccccc3n(CC(=O)Nc3ccc(C)cc3C)c2=O)cc1OC | inactive: -10.6% | –
24 | Cn1c(=O)c2c(c3ccccc31)OC(=O)CC2c1cccc(F)c1 (stereo unspecified) | inactive: -18.3% | –

Row | SMILES | activity change, negative = inhibition | Potency
25 | O=C(C1CCC(Cn2c(=O)c3sccc3n(Cc3ccccc3F)c2=O)CC1)N1CCCCC1 (stereo unspecified) | inactive: -17.1% | –
26 | CCCCNC(=O)C1CCN(S(=O)(=O)c2ccc3c(ccn3CC)c2)CC1 | inactive: -10.5% | –
27 | CC(C)NC(=O)C1CCN(C(=O)c2cc3sccc3n2Cc2ccc(Cl)cc2)CC1 | – | active: 8.91 µM
28 | Cc1cc(C)c(NC(=O)c2ncoc2-c2ccco2)c(C)c1 | inactive: -13.4% | –
29 | CC(=O)N1C[C@H](O)C[C@H]1C(=O)O | inactive: 3.93% | –
30 | O=S(=O)(NCCc1csc2nc(-c3ccccc3)nn12)c1ccc(Cl)s1 | inactive: -20% | –
31 | COc1ccc2c(CNC3CCCCCC3)c(C(=O)O)n(Cc3cccc(F)c3)c2c1 | inactive: -14.2% | –
32 | O=S(=O)(O)c1ccc2nc(-c3ccccc3)[nH]c2c1 | inactive: 8.18% | –
33 | CCN(CC)CCSc1nnc2c3cc(F)ccc3n(C)c2n1 | inactive: -8.64% | –
34 | CCOC(=O)c1c(C)[nH]c(CCC(=O)Nc2ccc(Cl)cc2C)c1C | inactive: -4.97% | –
35 | COc1ccc(-c2noc(CNS(=O)(=O)c3ccc(Br)cc3)n2)cc1OC | inactive: -30% | –
36 | Cc1ccc(-c2noc(CN(C(=O)COc3cc(C)cc(C)c3C)C(C)C)n2)cc1 | inactive: -18.7% | –
37 | COc1ccc(CCNC(=O)c2cnc3sc(N4CCCC4)nn3c2=O)cc1OC | inactive: -16.4% | –
38 | CN(C(=O)c1cc2c(s1)-c1ccc(Cl)cc1SC2)c1cccc(C(F)(F)F)c1 | inactive: 10.2% | –
39 | O=C(CN1C(=O)COc2ccc(S(=O)(=O)N3CCCCC3)cc21)NCc1ccc(Cl)cc1 | inactive: -22.2% | –
40 | Cc1ccc(CNC(=O)c2nnn(CC(=O)Nc3cc(C)ccc3C)c2N)cc1 | inactive: -3.2% | –
41 | CSCCC(NS(=O)(=O)c1ccc2c(c1)oc(=O)n2C)C(=O)N1CCN(c2cccc(Cl)c2)CC1 (stereo unspecified) | inactive: -25% | –
42 | CCOc1ccc(-c2cc(-c3nc(-c4cc(OC)c(OC)c(OC)c4)no3)[nH]n2)cc1 | inactive: -26.1% | –
43 | Fc1ccc(-c2noc3ncnc(NCC4CCN(Cc5ccc(Cl)cc5)CC4)c23)cc1 | inactive: -27.7% | –
44 | COc1cc(NC(=O)c2cc(C)nc3c2c(C)nn3-c2ccccc2Cl)cc(OC)c1 | inactive: -24.6% | –
45 | CO[C@@]1(NC(=O)CSC[C@@H](N)C(=O)O)C(=O)N2C(C(=O)O)=C(CSc3nnnn3C)CS[C@@H]21 | inactive: 6.52% | –
46 | Cc1ccc2cc3c(N)nn(C(=O)c4cccc(F)c4)c3nc2c1 | inactive: 16.9% | –
47 | Cc1cc2nc3c(=O)[nH]c(=O)nc-3n(CC(O)C(O)C(O)CO)c2cc1C (stereo unspecified) | inactive: 1.27% | –
48 | Cc1cc(C)cc(NC(=O)Cn2nnc(-c3nc(-c4ccncc4)no3)c2N)c1 | inactive: -13.1% | –

Row | SMILES | activity change, negative = inhibition | Potency
49 | Cc1cc2c(cc3c(SCc4nc(-c5ccccc5)oc4C)nnc(C)n32)o1 | inactive: -14.9% | –
50 | COc1ccc(N2CCN(C(=O)c3cccc(NC(=O)c4nsc5ccccc45)c3)CC2)cc1 | inactive: -29.9% | –
51 | CCOC(=O)c1ccc(NC(=O)Nc2cc3c(cc2N2CCCC2)n(C)c(=O)n3C)cc1 | inactive: -3.2% | –
52 | Cc1cc(CC(=O)O)n(C)c1C(=O)c1ccc(Cl)cc1 | inactive: 5.44% | –
53 | Nc1c(C(=O)Nc2ccc(F)c(F)c2)sc2nc(-c3ccncc3)ccc12 | inactive: 14.4% | –
54 | COC(=O)c1cc(NC(=O)c2nn(C)c3c2COc2ccccc2-3)cc(C(=O)OC)c1 | inactive: -12.1% | –
55 | COc1cccc(CNC(=O)c2cc(C)nc3c2c(C)nn3-c2cccc(F)c2)c1 | inactive: -19.8% | –
56 | COc1ccccc1NC(=O)C1=C(C)Nc2nc(SCc3ccccc3F)nn2C1c1cccs1 (stereo unspecified) | inactive: -20% | –
57 | O=C(COCc1cc(-c2ccc3c(c2)OCO3)on1)N1CCN(c2ccccc2)CC1 | inactive: -30.5% | –
58 | Cc1ccc(S(=O)(=O)NCCc2cn3ccsc3n2)cc1 | inactive: 0.0146% | –
59 | CCC(CC)C(=O)Nc1nc2c(s1)CC(C)CC2 (stereo unspecified) | inactive: -8.71% | –
60 | COc1ccc(-n2nnnc2C2CCN(S(=O)(=O)c3ccc(C(C)(C)C)cc3)CC2)cc1 | inactive: -7.94% | –
61 | COc1ccc(NC(=O)CCc2nnc3n(CC(C)C)c(=O)c4ccccc4n23)cc1 | inactive: 0.93% | –
62 | CCc1ccccc1NC(=O)C1CCCN(c2ncnc3onc(C)c23)C1 (stereo unspecified) | inactive: -29.1% | –
63 | CC12CCC(CC1)C(C)(C)O2 | inactive: 13% | –
64 | COc1ccc(CNC(=O)c2ccc(CS(=O)Cc3ccccc3Cl)o2)cc1 (stereo unspecified) | inactive: -3.32% | –
65 | Cc1ccc(-n2nc(C(=O)N3CCN(c4cc(Cl)ccc4C)CC3)c3c4ccccc4n(C)c3c2=O)cc1 | inactive: -5.54% | –
66 | O=C(c1ccc(CSc2nc3ccncc3n2Cc2ccccc2)cc1)N1CCCCCC1 | inactive: -19.2% | –
67 | Cc1ccc(NC(=O)Cn2ccn(-c3ccc(F)c(F)c3)c(=O)c2=O)cc1C | inactive: -19.1% | –
68 | C=Cc1ccc(CSc2nc(-c3ccc(C)cc3)nc3c2Cc2c(CO)cnc(C)c2O3)cc1 | inactive: -11.7% | –
69 | O=C(Nc1cccc(C(=O)OCc2cc(=O)n3c4c(sc3n2)CCCC4)c1)c1ccccc1 | inactive: -8.14% | –
70 | Cc1cccc(NC(=O)C(NS(=O)(=O)c2ccc3c(c2)oc(=O)n3C)C(C)C)c1 (stereo unspecified) | inactive: -8.71% | –
71 | O=c1c(S(=O)(=O)c2cccc(Cl)c2)cn(Cc2ccccc2)c2cc(N3CCOCC3)c(F)cc12 | inactive: -7.63% | –
72 | O=C1NC(=O)C(=Cc2ccc(-c3ccc(F)cc3)o2)S1 | inactive: -17.8% | –

Row | SMILES | activity change, negative = inhibition | Potency
73 | CCOc1ccc(S(=O)(=O)Nc2nc3ccccc3nc2Nc2ccc(OC)cc2)cc1 | inactive: -1.9% | –
74 | CCCNC(=O)CCSc1nc(-c2ccc3c(c2)OCO3)cc(C(F)(F)F)n1 | inactive: -8.94% | –
75 | Cc1cc(C)c2nc(N(Cc3cccnc3)C(=O)CCOc3ccccc3)sc2c1 | inactive: -0.61% | –
76 | COc1cc(CCC(=O)NCc2ccc3c(c2)CCN3C(=O)c2ccc(F)cc2)cc(OC)c1OC | inactive: -2.48% | –
77 | CCOC(=O)c1c(SCC(=O)Nc2cc(Cl)cc(Cl)c2)nc(=O)[nH]c1C | inactive: 2.56% | –
78 | COc1ccc(-c2nc3c(c(SCC(=O)N(C)c4ccccc4)n2)Cc2cc(C)ccc2O3)cc1 | inactive: -13.4% | –
79 | CCCCNC(=O)C1CCC(CNS(=O)(=O)c2ccc(NC(C)=O)cc2)CC1 (stereo unspecified) | inactive: 20.6% | –
80 | COc1ccc2ncc3c(-c4ccc(C)c(C)c4)nn(CC(=O)NC4CCCC4)c3c2c1 | inactive: -15.3% | –
81 | Cc1ccc2nc(NCc3ccc(F)cc3)c3nncn3c2c1 | inactive: -3.25% | –
82 | CCN(CC)c1ccc(NC(=O)Cn2nc(C)n3cccc3c2=O)c(C)c1 | inactive: -6.33% | –
83 | Cc1cccc(-n2ncc3c(N4CCN(c5ccccc5)CC4)ncnc32)c1 | inactive: -13.7% | –
84 | CCc1ccccc1NC(=O)CCc1c(C)nn(-c2ccc(N3CCOCC3)nn2)c1C | inactive: -6.78% | –
85 | CCc1nn2c(=O)cc(COC(=O)c3ccccc3NC(=O)C3CCCCC3)nc2s1 | inactive: -5.55% | –
86 | CC(=O)Nc1ncc([N+](=O)[O-])s1 | inactive: 13.8% | –
87 | O=C(c1ccc(F)cc1)n1nc(-c2ccccc2)nc1NCc1ccc(F)cc1 | inactive: 4.92% | –
88 | COc1ccc(Cn2c(=O)[nH]c3cc(C(=O)N4CCN(c5cc(Cl)ccc5C)CC4)ccc3c2=O)cc1 | inactive: -9.82% | –
89 | COc1ccccc1-c1noc(-c2ccc(NC(C)C)c([N+](=O)[O-])c2)n1 | inactive: 34.5% | –
90 | COc1ccc(-c2nn(-c3cccc(F)c3)c3c2cnc2cc(OC)c(OC)cc23)cc1 | inactive: -22.4% | –
91 | COc1ccc2[nH]cc(S(=O)(=O)c3ccc(C)c(C)c3)c(=O)c2c1 | inactive: -23.3% | –
92 | O=C(CCCCn1c(=O)c2ccccc2n(CC(=O)Nc2cccc(F)c2)c1=O)NCCc1ccccc1 | inactive: -10.2% | –
93 | CCc1ccc(NC(=O)Cn2cc(S(=O)(=O)N3CCCC3)c(S(=O)(=O)N3CCCC3)c2)cc1 | inactive: -13.4% | –
94 | CC(C)NC(=O)CCN1C(=O)c2ccccc2Sc2ncccc21 | inactive: -1.46% | –
95 | O=C(NC1CC(=O)N(c2ccc(F)cc2)C1)C1CC1 (stereo unspecified) | inactive: -3.32% | –
96 | COc1ccc2oc(=O)c(-c3nc(-c4cccs4)no3)cc2c1 | inactive: 1.63% | –
